In all, about 45,000 compounds went through this assay and about 65 (0.1%) were called active. The call rests on the fitted dose curve; in most records, active means well fitted activation curve with a large enough effect; inconclusive means small, poorly fitted or top-dose-only effect; inactive means no such curve, though single readings can be large or run the other way. The list shows a part of the results.
What follows are molecules tested against Galactocerebrosidase (Homo sapiens) (UniProt P54803) (assay: A Novel Cell-Based Assay to Identify Small Molecules for B -Galactocerebrosidase). Settings: 145M-Twi-hGALC-G270D cells (Twitcher mouse brain line with human GALC G270D), HMU-beta-Gal fluorescence, 48 h; series mostly up to 57.5 µM; activation: at the top concentration.
Method in brief: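 Brain-derived Twitcher mouse 145M-Twi cells stably expressing human GALC-G270D or wild-type GALC, treated live, then residual GALC activity read by fluorescence of HMU-b-Gal substrate (0.1 mM final) in citrate-phosphate buffer pH 5.2 with sodium taurocholate. Signal increase indicates enhancement.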
Further: 0% is about no effect; nearly all actives have a fitted effect of over 65% in size.

Sequence of UniProt P54803 (P54803 whole entry, looked up): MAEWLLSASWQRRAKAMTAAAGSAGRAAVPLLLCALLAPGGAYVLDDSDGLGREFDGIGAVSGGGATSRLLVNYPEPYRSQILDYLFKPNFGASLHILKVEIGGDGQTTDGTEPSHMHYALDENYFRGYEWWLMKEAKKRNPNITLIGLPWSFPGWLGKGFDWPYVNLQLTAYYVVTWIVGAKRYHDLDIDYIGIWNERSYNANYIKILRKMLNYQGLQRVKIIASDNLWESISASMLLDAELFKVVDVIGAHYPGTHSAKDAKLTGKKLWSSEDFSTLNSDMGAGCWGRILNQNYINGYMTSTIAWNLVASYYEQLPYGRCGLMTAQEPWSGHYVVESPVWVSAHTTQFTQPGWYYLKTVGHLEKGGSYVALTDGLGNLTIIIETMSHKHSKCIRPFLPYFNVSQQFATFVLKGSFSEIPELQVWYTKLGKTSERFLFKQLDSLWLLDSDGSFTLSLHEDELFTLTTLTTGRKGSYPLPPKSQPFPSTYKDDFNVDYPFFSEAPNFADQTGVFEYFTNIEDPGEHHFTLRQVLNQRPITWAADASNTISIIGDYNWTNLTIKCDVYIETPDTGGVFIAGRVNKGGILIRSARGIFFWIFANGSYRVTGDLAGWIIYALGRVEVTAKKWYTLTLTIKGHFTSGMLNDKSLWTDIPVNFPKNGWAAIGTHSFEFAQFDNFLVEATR

activation, inactive:
CCOC(=O)c1[nH]c(C)c(CCC(=O)N2CCN(c3cc(Cl)ccc3C)CC2)c1C -10.4%
O=C(Nc1ccccc1C(=O)OCc1cc(=O)n2c3c(sc2n1)CCCC3)c1ccc(Cl)cc1 -9.25%
Cc1nnc(N2CCN(c3ccccc3)CC2)c2c1nnn2Cc1ccc(F)cc1 -7.86%
Cc1ccc(C)c(NC(=O)CCn2cnnn2)c1 -3.4%
O=C1Nc2c(c(=O)[nH]c(=O)n2-c2ccc(Cl)cc2)C1(NS(=O)(=O)c1ccccc1)C(F)(F)F (stereo not given) -30.4%
CCOC(=O)c1c(C)[nH]c(C)c1S(=O)(=O)N1CCCC(C(=O)N2CCN(c3ccc(Cl)cc3)CC2)C1 (stereo not given) -15.5%
O=C(Nc1ccc(F)cc1F)c1ccc(-c2ccccc2)s1 -5.77%
CCCCOC(=O)c1ccc(NC(=O)c2ccc3c(c2)CCN3S(=O)(=O)c2ccccc2)cc1 -12.2%
COc1ccc(C2CC(=O)c3cc(-c4nc(-c5cccc([N+](=O)[O-])c5)cs4)c(=O)n(-c4cc(C)cc(C)c4)c3C2)cc1 (stereo not given) -2.98%
CCOC(=O)CSc1nc2sc3c(c2c(=O)n1CC)CCCC3 -22.9%
Cn1c(=O)c2c(-c3ccccc3Br)n(C(C)(C)C)cc2n(C)c1=O -14.5%
Cc1cnc2c(c1SCC(=O)N(C)c1ccccc1)c(=O)n(C)c(=O)n2C -12.1%
CCCC(=O)Nc1ccc2nn(-c3ccc(CC)cc3)nc2c1 -5.2%
O=C(CCCn1c(=O)c2sccc2n(Cc2c(F)cccc2Cl)c1=O)NCc1ccccc1 -2.93%
Cc1ccc2nc(CSc3nnc(NC(=O)COc4ccccc4F)s3)cc(=O)n2c1 -0.44%
Nc1c(C(=O)c2ccc3c(c2)OCO3)sc(Nc2ccccc2F)c1S(=O)(=O)c1ccccc1 -10.2%
COc1ccc(C)cc1N(CC(=O)N1CCC(C)CC1)S(=O)(=O)c1ccc(C)cc1 -19.9%
Cc1c(-c2nc(-c3ccc4c(c3)[nH]c(=O)n4C)no2)cccc1[N+](=O)[O-] -5.7%
CC1(C)CC(=O)c2cc(-c3nc(-c4ccc(Br)cc4)cs3)c(=O)n(-c3ccccc3)c2C1 14.9%
O=C(c1cnc(N2CCOCC2)c2ccccc12)N1CCN(c2ccc(F)cc2)CC1 0.241%
Cc1cccc(-c2noc(CN(C(C)C)S(=O)(=O)c3ccc(Br)cc3)n2)c1 1.56%
Cc1ccc(N2CCN(Cc3nnc(-c4ccc5c(c4)OCO5)o3)CC2)c(C)c1 -8.77%
Cc1cc(C)cc(NC(=O)CSCc2cc(=O)c3cc(Cl)ccc3[nH]2)c1 -3.25%
COc1ccccc1N1CCN(C(=O)c2ccc3c(c2)N(Cc2ccccc2)C(=O)c2ccccc2S3(=O)=O)CC1 -13.2%
Cc1cccc(NC(=O)Cn2nc(C)c3nn(-c4ccc(Cl)cc4)c(C)c3c2=O)c1C -8.44%
COCCNC(=O)CSc1nc2cc3c(cc2c(=O)n1CCCCCC(=O)NCCc1ccc(OC)c(OC)c1)OCO3 -10.8%
COc1ccc(-c2cc(C(F)(F)F)n3nc(-c4ccc(Cl)cc4)cc3n2)cc1OC -9.19%
COc1c(C)c2c(c(O)c1C/C=C(\C)CCC(=O)OCCN1CCOCC1)C(=O)OC2 -0.0188%
CN1C(C(=O)Nc2ccccn2)=C(O)c2ccccc2S1(=O)=O -10.7%
O=C1c2ccccc2-c2onc3c(Br)cc(NC4CCCCC4)c1c23 -16.6%
O=C(CSc1nnc(-c2cccs2)o1)Nc1cccc(C(F)(F)F)c1 16.7%
Cc1cccc(N2C(=O)CSC23C(=O)N(CC(=O)NCCc2ccccc2)c2ccccc23)c1 (stereo not given) -26.9%
O=C(OCc1ccccc1F)c1ccc(-c2nnn(Cc3ccccc3)n2)cc1 -3.48%
CCN(CC)c1ccc(NC(=O)C(NS(=O)(=O)c2cccs2)C(C)C)c(C)c1 (stereo not given) -8.93%
O=C(Cc1ccccc1)NC1CC(=O)N(c2ccc3c(c2)OCCO3)C1 (stereo not given) 5.72%
NCCS -15.9%
Cc1cc2c(cc1S(=O)(=O)CCC(=O)NCc1ccccc1)OCC(=O)N2 -20%
COCCOC(=O)C1=C(C)NC(C)=C(C(=O)OC(C)C)C1c1cccc([N+](=O)[O-])c1 (stereo not given) 17%
COc1ccc(-n2nnnc2C2CCN(S(=O)(=O)c3cccc(Cl)c3C)CC2)cc1 -12.8%
CCCOc1ccc2c(c1)CC[C@@H]1[C@@H]2CC[C@]2(C)C(OC)CC[C@@H]12 (stereo not given in full) -14%
CCn1nc(-c2ccccc2)c(-c2ccccc2)c(C(=O)Nc2ccccc2C(N)=O)c1=O -7.02%
CN(C(=O)c1cnc(N2CCOCC2)c2ccccc12)c1ccccc1F -0.296%
CCc1ccc(S(=O)(=O)Nc2cc(-c3cn4ccccc4n3)ccc2C)cc1 1.8%
COc1ccc(NC(=O)c2c(NCc3cccc(OC)c3)sc3c2CCC3)cc1 -10.9%
COc1ccc(C)c2sc(N(Cc3cccnc3)C(=O)COc3ccccc3)nc12 -19.5%
Cc1cccc(Nc2ncnc3c2cnn3C)c1C -0.657%
CCCOc1ccc(C(=O)Nc2ccc(NC(=O)c3cccc(Cl)c3)cc2)cc1 -21.5%
Cc1ccc(C)c(N2CCN(C(=O)c3cc(S(=O)(=O)N4CCCC4)c[nH]3)CC2)c1 11.4%
COc1cccc(Nc2cc(-c3ccccc3)nc(C)n2)c1 -9.76%
CN(C)c1ccc(-c2nc(-c3ccncc3)no2)cc1[N+](=O)[O-] -12.8%
COc1cc(OC)cc(C(=O)NCc2ccc3c(c2)CCN3C(=O)c2ccccc2)c1 -21.7%
Cc1ccc(-n2ncc3c(N4CCN(C)CC4)ncnc32)cc1 -5.38%
Cc1ccc2c(c1)N(C(=O)N1CCC(C(=O)NC3CCCCCC3)CC1)CCO2 -15.6%
COCCCNC(=O)CSc1nc2nc(C)c(Cc3ccccc3Cl)c(C)n2n1 0.141%
COc1cccc(CNC(=O)c2cc(-c3cccs3)nc3ccccc23)c1 -9%
CC(=O)N1CCCc2cc(S(=O)(=O)NCc3ccc(N(C)C)cc3)ccc21 -12.1%
COc1cc2nc(NCc3ccccc3Cl)n3nc(-c4cccnc4)nc3c2cc1OC 5.49%
COc1ccc(CC(=O)N2CC(=O)Nc3ccc(Br)cc3C2c2ccc(F)cc2)cc1OC (stereo not given) -8.36%
COC(=O)c1ccc(NC(=O)CC2C(=O)N(c3ccccc3)C(=O)N2C2CCCC2)cc1 (stereo not given) 3.43%
CCOc1ccc(Nc2c(S(=O)(=O)c3ccc(C)cc3)cnc3ccc(OC)cc23)cc1 -26.1%
COc1cc(C(=O)N2CCC(c3ccncc3)CC2)cc(OC)c1OC -13.7%
COc1ccc(Cn2c(C(=O)O)c(CNC3CCC(C)CC3)c3ccc(C)cc32)cc1 (stereo not given) 2.63%
Cc1cccc(-n2c(SCC(=O)Nc3ccccc3Cl)nc3n[nH]c(C)c3c2=N)c1 -10.5%
COc1cccc(C(=O)Nc2ccc3nc(SCc4ccc(C)cc4)sc3c2)c1 -1.55%
Cn1nc(-c2ccccc2)c(-c2ccccc2)c(C(=O)Nc2ccc(S(N)(=O)=O)cc2)c1=O 3.11%
CCOc1ccc(NC(=O)CN2C(=O)CCSc3ccc(S(=O)(=O)N4CCCC4)cc32)cc1 -13.8%
O=C(NCC(c1cccnc1)N1CCOCC1)C(=O)Nc1cccc(Cl)c1 (stereo not given) -15.3%
CSc1ccc(CCNC(=O)c2sc3ncccc3c2-n2cccc2)cc1 -12%
COC(=O)c1ccc(NC(=O)N2CCc3c([nH]c4ccccc34)C2c2ccc(C)cc2)cc1 (stereo not given) -34.9%
Cc1ccc(C)c(N2CCN(C(=O)C(C)n3nc(C)c4sc5ccccc5c4c3=O)CC2)c1 (stereo not given) 4.33%
COc1cccc(-n2cc(C(=O)NCCc3cccc(C)c3)c3ccccc3c2=O)c1 -32.2%
CCC1CCCCN1CCCNC(=O)c1cc2c(Cl)nc3ccc(C)cc3c2s1 (stereo not given) -14.3%
Cc1c2cnn(CC(=O)NCCc3ccccc3)c(=O)c2c(C)n1Cc1ccccc1Cl -5.07%
CCC1CCCCN1CCCNC(=O)c1ccc2c(c1)N(Cc1cccc(C)c1)C(=O)c1ccccc1S2(=O)=O (stereo not given) -5.55%
COc1ccc(Cn2c(=O)c3oc4ccccc4c3n(CC(=O)Nc3cc(C)cc(C)c3)c2=O)cc1 5.7%
O=C(NCc1ccccc1Cl)C(=O)NCC(c1ccco1)S(=O)(=O)c1cccs1 (stereo not given) -14%
COc1ccccc1CNC(=O)C1CCN(c2nn3c(=O)cc(C)nc3s2)CC1 6.31%
O=C(O)c1ccc(-n2nc(-c3ccccc3O)nc2-c2ccccc2O)cc1 -7.48%
Cc1ccc(-c2nc3ccc(Br)cn3c2Nc2ccc3c(c2)OCO3)o1 -19.6%
O=C(COc1ccccc1F)NC1CC(=O)N(c2ccc3c(c2)OCCO3)C1 (stereo not given) -16.1%
CCc1ccccc1NC(=O)CSc1nc2c(oc3ccccc32)c(=O)n1-c1ccccc1 -1.06%
CCOc1ccc(NC(=O)CSc2nc3nc(C)c(Cc4ccccc4)c(C)n3n2)cc1 -12.7%
COc1cc(C(=O)NCC(c2ccc(N(C)C)cc2)N2CCCC2)cc(OC)c1OC (stereo not given) -12%
COc1ccc(/C=C(\C#N)c2nc(-c3ccc(Cl)c(Cl)c3)cs2)cc1OC 15.9%
CCc1ccc(NC(=O)CSc2nc(=O)n(Cc3cccnc3)c3c2CCC3)cc1 -8.64%
CC(=O)c1ccc(NC(=O)CN2C(=O)c3cccnc3Sc3ccccc32)cc1 -9.73%
COc1ccccc1N1CCN(C(=O)c2cnn(-c3ccc(C)c(C)c3)c2C2CCN(C(=O)OC(C)(C)C)CC2)CC1 -6.86%
Cc1cccc(C(=O)Nc2ccc(-c3nc4cc(C(C)C)ccc4o3)cc2)c1 -12.1%
Cc1ccc(N2CCN(C(=O)NCc3noc4ccccc34)CC2C)cc1 (stereo not given) -11.4%
COc1cc(Cl)c(C)cc1Nc1nc2ccccc2nc1NS(=O)(=O)c1ccccc1 -13.3%
COc1ccc(-c2c3c(nc4sc(C(=O)Nc5ccc(F)cc5)c(N)c24)CC(C)(C)CC3=O)cc1 -9.69%
CCOC(=O)c1c(C)oc2ncnc(NCCCN3CCN(c4cc(C)ccc4C)CC3)c12 -6.15%
COc1ccc(Cl)cc1S(=O)(=O)N1CCN(Cc2cccc(F)c2)CC1 -7.71%
CCCOc1ccc(C(=O)N(Cc2cccs2)c2ccc(C)cc2)cc1 -7.27%
CCOC(=O)c1ccc(NC(=O)C2CCN(C(=O)N3CC(C)Oc4ccc(C)cc43)CC2)cc1 (stereo not given) -18.7%

Reference: PubChem BioAssay AID1159614 (National Center for Advancing Translational Sciences (NCATS), 2016)
